The values that follow come from PMC10030575, “The IgV domain of the poliovirus receptor alone is immunosuppressive and binds to its receptors with comparable affinity” (Scientific Reports, 2023).

These are yes or no findings as the source states them, for the method shown. Some binding calls cover weakened binding; strength is not graded here. For some assays here: Sequences can lack the tags named with a protein.

The target in test [1] is TIGIT on the surface of stimulated murine T-cells (mouse (endogenous in primary splenocyte T-cells)) (UniProt P86176). In words: flow cytometry on cells; stimulated mouse splenocytes, Fc receptors blocked, 2.5 ug of construct for 1 h at 4 °C, detected with PE anti-human IgG Fc, gated on CD4+ and CD8+ T-cells; competition by a 2-molar excess of anti-TIGIT antibody (clone 1B4) added after washing, 30 min at 4 °C; only the binder purified.

In test [2] the target is T1, recombinant mouse TIGIT-Fc-his (mouse, UniProt P86176 29-148).
T1 construct: mouse TIGIT (T-cell immunoglobulin and ITIM domain), recombinant; also called mTIGIT-Fc-his; mTIGIT; source: bought: Biolegend (771808)
T1 sequence (looked up): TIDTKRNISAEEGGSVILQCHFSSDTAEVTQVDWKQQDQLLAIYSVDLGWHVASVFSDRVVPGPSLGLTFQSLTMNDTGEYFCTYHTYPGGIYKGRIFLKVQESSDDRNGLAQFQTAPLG
In words: SPR; Biacore T200; His-tagged receptors captured on an anti-histidine antibody CM5 chip (1-5 ug/mL, 30 uL/min); five concentrations (1:2 serial dilutions) of the PVR-Fc constructs flowed over, single-cycle kinetics; HBS-EP (20 mM HEPES pH 7.4, 150 mM NaCl, 0.005% Tween-20, 3.4 mM EDTA); 1:1 Langmuir model; both purified.

Test [3] has as its target T2, recombinant mouse CD226-his (mouse, UniProt Q8K4F0 19-254).
T2 construct: mouse CD226 (DNAM1), recombinant; also called mCD226-his; mCD226; source: bought: SinoBiological (50232-M08H)
T2 sequence (looked up): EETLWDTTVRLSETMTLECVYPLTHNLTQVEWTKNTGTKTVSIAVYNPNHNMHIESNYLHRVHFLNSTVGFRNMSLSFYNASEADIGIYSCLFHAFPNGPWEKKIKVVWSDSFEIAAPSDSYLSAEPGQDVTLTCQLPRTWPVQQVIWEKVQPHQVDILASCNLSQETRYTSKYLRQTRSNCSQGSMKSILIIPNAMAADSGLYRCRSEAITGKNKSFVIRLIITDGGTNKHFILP
The description is as above.

In test [4] the target is T3, recombinant mouse CD96-his (mouse, UniProt Q3U0X8 22-536).
T3 construct: mouse CD96 (TACTILE), recombinant; also called mCD96-his; mCD96; source: bought: Biolegend (788806)
T3 sequence (looked up): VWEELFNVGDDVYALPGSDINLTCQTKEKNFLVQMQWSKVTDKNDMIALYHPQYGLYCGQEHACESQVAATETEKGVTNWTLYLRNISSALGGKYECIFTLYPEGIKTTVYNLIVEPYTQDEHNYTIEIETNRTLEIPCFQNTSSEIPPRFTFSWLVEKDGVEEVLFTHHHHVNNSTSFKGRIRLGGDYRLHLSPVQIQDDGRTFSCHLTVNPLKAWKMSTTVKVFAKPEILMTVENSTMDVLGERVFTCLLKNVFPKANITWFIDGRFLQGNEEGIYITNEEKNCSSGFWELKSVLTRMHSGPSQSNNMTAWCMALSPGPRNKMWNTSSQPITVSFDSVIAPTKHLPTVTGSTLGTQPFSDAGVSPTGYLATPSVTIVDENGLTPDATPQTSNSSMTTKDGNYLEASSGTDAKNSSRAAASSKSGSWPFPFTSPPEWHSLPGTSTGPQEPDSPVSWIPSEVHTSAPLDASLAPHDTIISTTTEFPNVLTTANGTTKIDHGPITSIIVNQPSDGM
The description is as above.

Regarding “mutant vdPVR-Fc (Q62R and F128R) (from UniProt Q8K094 29-147) (Fc fusion)”, the binding entry is on record as “no binding (tested: 2.5 µg)” in test [1], “no binding” in test [2], “no binding” in test [3] and “no binding” in test [4].

B1: vdPVR-Fc (IgV-domain PVR-Fc) (Fc fusion, mouse, UniProt Q8K094 29-147, looked up)
chain: DIRVLVPYNSTGVLGGSTTLHCSLTSNENVTITQITWMKKDSGGSHALVAVFHPKKGPNIKEPERVKFLAAQQDLRNASLAISNLSVEDEGIYECQIATFPRGSRSTNAWLKVQARPKN
notes: murine PVR (poliovirus receptor, CD155), IgV domain of the extracellular domain, residues 29-147 of NP_081790.1; An Ig-kappa leader at the 5' end drives secretion; Migrates as a dimer (~94 kDa) without reducing agent; also called minimal murine PVR-Fc fusion construct; source: Expi293F cells, secreted, purified (protein A); not shown: Fc (human IgG1; P01857 residues 100-330; joined by linker …)
Turning to B1, in test [1], the binding entry is listed as “binds”.
